In all, about 46,000 compounds went through this assay and about 60 (0.1%) were called active. About 3% were inconclusive and are not listed. The call rests on the fitted dose curve; in most records, active means well fitted inhibition curve with a large enough effect; inconclusive means small, poorly fitted or top-dose-only effect; inactive means no such curve, though single readings can be large or run the other way. The list shows a part of the results.
experiment: Primary qHTS assay for Inhibitors of ovarian cancer metastasis using an organotypic tumor microenvironment (TME) model.; further: nearly all actives have a fitted effect of over 65% in size;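 on activity change, negative = inhibition: plate controls were DMSO wells for no effect and tomatine positive control wells for full effect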; settings: SKOV3ip1-GFP adhesion/invasion on 3D omental model, fluorescence; series mostly up to 45.8 µM; activity change, negative = inhibition: at the top concentration
How it was run: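 Primary human omental fibroblast/mesothelial 3D culture pre-formed 48 h. SKOV3ip1-GFP cells added with compounds (0.36-46 umol/L), incubated 2 h RT/16 h 37 C, fixed; GFP cells quantified at 488/509 nm.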

Compound | activity change, negative = inhibition | outcome
Cc1ccc(-c2nc(C)c(CCNC(=O)C(=O)Nc3ccc4c(c3)OCO4)s2)cc1 | inactive: -10.6% | –
N#Cc1c[nH]n2c(NC3CCCCC3)c(-c3cccc(Cl)c3)nc12 | inactive: 2.79% | –
CCc1ccc(NC(=O)c2cc3c([nH]c2=O)CC(C)(C)CC3=O)cc1 | inactive: -11.8% | –
CC(=O)c1cccc(NC(=O)c2cc3nc(-c4ccc(Br)cc4)cc(C(F)(F)F)n3n2)c1 | inactive: 7.76% | –
COc1ccc(CNC(=O)c2ccc(-c3nc(CSc4ccccc4)c(C)o3)cc2)c(OC)c1 | inactive: 4.81% | –
Cc1nc(N2CCOCC2)c2c(C(=O)N3CCN(c4cccc(C)c4C)CC3)c(C)oc2n1 | inactive: -2.96% | –
COc1cc(C(=O)N2CC(=O)Nc3ccc(C)cc3C2c2ccc(F)cc2)cc(OC)c1OC (centres undefined) | inactive: 7.92% | –
CCOC(=O)C1CCN(CCC(=O)Nc2ccc(OC)cc2)CC1 | inactive: 5.02% | –
CCCN1C(=O)C2(c3ccccc31)c1c(oc3ccc(C)cc3c1=O)C(=O)N2CCOC (centres undefined) | inactive: 24.6% | –
Cc1ccc(C)c(NC(=O)NCc2ccc3c(c2)CCN3C(=O)c2ccccc2)c1 | inactive: 2.77% | –
COC(=O)c1ccccc1NC(=O)Cn1c(=O)n(CCCC(=O)NCCc2ccc(OC)c(OC)c2)c(=O)c2ccccc21 | inactive: -5.67% | –
Cc1cc(C)c(NC(=O)CCC(=O)N2Cc3ccccc3Oc3ncccc32)c(C)c1 | inactive: -17.4% | –
CC(C)(N)c1ccc(-c2nc3ccccc3nc2-c2ccccc2)cc1 | inactive: -1.96% | –
COc1cc2ncn(-c3cc(OCc4ccccc4C(F)(F)F)c(C(N)=O)s3)c2cc1OC | inactive: 5.48% | –
COc1ccc(S(=O)(=O)NCc2ccc(C(=O)NCc3ccccc3)cc2)cc1 | inactive: 3.89% | –
CCCOc1ccc(C2c3c(oc4ccccc4c3=O)C(=O)N2c2nc(C)c(C(=O)OCC)s2)cc1 (centres undefined) | inactive: -6.55% | –
CC(C)c1ccc(NC(=O)C2(C)Cc3ccccc3C(=O)O2)cc1 (centres undefined) | inactive: 6.57% | –
CC(=O)c1ccc(N2CCN(C(=O)c3ccc(Cn4c(=O)[nH]c5ccccc5c4=O)cc3)CC2)cc1 | inactive: -6.96% | –
O=C(c1ccccc1)c1ccc2nc(Nc3cc(Cl)ccc3O)c3nncn3c2c1 | inactive: 5.9% | –
CC(C)C(NS(=O)(=O)c1cccc2cccnc12)C(=O)Nc1ccc(OC(F)(F)F)cc1 (centres undefined) | inactive: -8.52% | –
Cc1ccc2c(c1)-c1c(cnn1CC(=O)N1CCN(c3cc(Cl)ccc3C)CC1)CO2 | – | inactive
CN1c2cc(O)c(N=NC(N)=O)cc2CC1S(=O)(=O)O (centres undefined) | inactive: 9.23% | –
O=C(CCn1cnc2ccccc2c1=O)NCc1ccccc1 | inactive: -5.26% | –
COc1cccc(CNC(=O)c2cc(-c3cccc(OC)c3)n[nH]2)c1 | inactive: -3.34% | –
O=S(=O)(c1ccc2[nH]c3c(c2c1)CCCCC3)N1CCN(c2ccccc2)CC1 | inactive: 1.73% | –

Compound | activity change, negative = inhibition | outcome
CCN(CC)CCCNC(=O)Cn1nc(N2CCN(c3ccccc3OC)CC2)ccc1=O | inactive: 0.439% | –
CN1C(=O)Cc2cc(S(=O)(=O)CCC(=O)Nc3ccccc3)ccc21 | inactive: 9.02% | –
COc1cc(OC)c(N(C)C(=O)c2nn(C)c3c2CSc2ccccc2-3)cc1Cl | inactive: -2.53% | –
CCCSCCCNC(=O)CN1C(=O)COc2ccc(S(=O)(=O)N3CCC(C)CC3)cc21 | – | inactive
Cc1cccc(C)c1NC(=O)c1oc2c(c1C)-c1nn(Cc3ccccc3)cc1CC2 | – | inactive
COc1ccc(Cl)cc1NC(=O)CN(C)S(=O)(=O)c1ccc(Br)s1 | inactive: -5.12% | –
CCCCOc1ccc(S(=O)(=O)N2CCN(c3ccccc3OCC)CC2)cc1 | inactive: -5.62% | –
CCc1ccc(S(=O)(=O)Nc2ccc(-c3ccc(N4CCCCCC4)nn3)cc2)cc1 | inactive: 2.85% | –
CCOc1ccccc1NC(=O)c1sc(-n2nc(C)c(CCC(C)C)c2C)nc1C | inactive: -1.97% | –
O=C(NCC(c1ccccc1)c1ccccc1)c1nn(-c2ccccc2Cl)nc1CO | – | inactive
Cc1ccc(Cl)cc1N1CCN(C(=O)c2ccc3c(c2)N(Cc2ccccc2F)C(=O)c2ccccc2S3(=O)=O)CC1 | – | inactive
Cc1nc2c(C(=O)N(C)Cc3ccccc3)c[nH]n2c(=O)c1Cc1ccc(Cl)cc1 | – | inactive
O=C(Nc1cccc(Cl)c1)Nc1ccccc1OCc1cc(=O)n2ccccc2n1 | inactive: -5.93% | –
C#CCN[C@@H]1CCc2ccccc21 | inactive: 2.1% | –
COCCCNC(=O)CCC(=O)N1Cc2ccccc2Oc2ncccc21 | inactive: 0.649% | –
Cc1cc2c(c3oc(=O)c4ccccc4c13)CN(Cc1ccc(F)cc1)CO2 | inactive: -5.86% | –
CCC1CCCCN1CCCNC(=O)CN1C(=O)CSc2ccc(S(=O)(=O)N3CCC(C)CC3)cc21 (centres undefined) | inactive: -19.2% | –
Cc1cc(C)c2oc(-c3cccc(NC(=O)c4ccco4)c3)nc2c1 | inactive: -15.1% | –
CCc1cccc2sc(N3CCN(C(=O)c4cc5ccccc5cc4OC)CC3)nc12 | – | inactive
Cc1ccc(CCNC(=O)Cn2c(-c3cccs3)cc3cc(F)ccc32)cc1 | – | inactive
COc1cccc(C(=O)Nc2c(C(=O)NC(C)(C)C)oc3ccccc23)c1 | inactive: -0.658% | –
C1COC(NC(C2CC2)C2CC2)=N1 | inactive: 5.08% | –
Cc1ccc(CNC(=O)CN(c2ccc(Cl)cc2Cl)S(=O)(=O)c2ccccc2)cc1 | inactive: -7.2% | –
CN(C)c1ccc(CNC(=O)CN(C)S(=O)(=O)c2ccc3c(c2)c(=O)n(C)c(=O)n3C)cc1 | inactive: -0.615% | –
